The whole screen tested about 340,000 compounds, of which about 6,900 (2%) were called active. No stated cut-off is given here; in the data, active means inhibition above about 30%; inactive means below that, where a call was filed. Only a part is listed here, and it is no random draw. Entries without a call were filed so in the source.
Target: D(2) dopamine receptor (Homo sapiens) (UniProt P14416)
Assay: HTS Assay for Allosteric Antagonists of the Human D2 Dopamine Receptor: Primary Screen for Antagonists; further: 0% is about no effect
Conditions: HEK293 TREx D2 cells, calcium flux, dopamine EC80; at 10 µM; stronger effect = higher value
Method in brief: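 Read-out: kinetic calcium fluorescence (1 cycle/s) in inducible HEK293 T-REx D2 cells after an EC80 dopamine addition that followed 180 s compound preincubation. Loss of the dopamine response indicates antagonism.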

Chain of UniProt P14416 (P14416 whole entry, looked up): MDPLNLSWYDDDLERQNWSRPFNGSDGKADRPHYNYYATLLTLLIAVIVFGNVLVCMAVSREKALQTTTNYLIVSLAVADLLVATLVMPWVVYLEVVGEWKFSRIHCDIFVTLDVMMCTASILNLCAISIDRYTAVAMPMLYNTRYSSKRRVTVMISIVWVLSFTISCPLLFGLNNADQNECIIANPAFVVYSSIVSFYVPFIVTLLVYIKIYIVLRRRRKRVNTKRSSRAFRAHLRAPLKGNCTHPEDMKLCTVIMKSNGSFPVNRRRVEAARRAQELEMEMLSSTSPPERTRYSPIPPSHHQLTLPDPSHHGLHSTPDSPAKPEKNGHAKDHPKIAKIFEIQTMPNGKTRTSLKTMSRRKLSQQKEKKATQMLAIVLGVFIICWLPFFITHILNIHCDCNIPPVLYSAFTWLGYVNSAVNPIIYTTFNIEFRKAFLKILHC

Point of comparison: `CC(C)(C)c1ccc(-c2nnc(-c3ccccc3NC(=O)c3cccc(C(F)(F)F)c3)o2)cc1`, inhibition -5.05%. Against it:
- COc1ccc(Nc2ncnc3onc(C)c23)cc1Cl — higher, 3.82%
- COC(=O)c1ccc(OCC2c3cc(OC)c(OC)cc3CCN2C(=O)c2cccc(C)c2)cc1 (stereo unspecified) — higher, -0.532%
- COc1cccc(N2CCN(C(=O)CN3CCSc4ccc(S(=O)(=O)N(C)C)cc43)CC2)c1 — higher, 3.96%
- COc1ccc(NC(=O)C2CCN(C3=NS(=O)(=O)C(c4ccc(C)c(C)c4)=C3C)CC2)cc1OC — lower, -6.08%
- COc1ccc(CNC(=O)CCS(=O)(=O)c2cc(Br)cc3c2N(C(=O)C2CC2)CC3)cc1 — higher, 19.9%
- COc1ccc2c(c1)NC(c1ccc(F)cc1)=NC(c1ccc(F)cc1)=N2 — higher, 12.2%
- Cc1ccc(/C=C/c2onc(C)c2S(=O)(=O)N2CCC(C(=O)NCc3ccco3)CC2)cc1 — higher, 21.3%
- Cc1ccc(CCNC(=O)c2ccc3c(c2)N(Cc2cc(C)ccc2C)C(=O)c2ccccc2S3=O)cc1 (stereo unspecified) — higher, 20.5%
- CCN(CC)c1ccc(NC(=O)CN2C(=O)c3cccnc3Oc3ccccc32)c(C)c1 — higher, 15.7%
- CCCN1C(=O)C(Cc2nc3ccccc3c(=O)n2CC)c2cc(Br)ccc21 (stereo unspecified) — lower, -16.2%
- Cc1ccc(C)c(Cn2c(=O)n(Cc3ccccc3)c(=O)c3sc4ccccc4c32)c1 — higher, 13.6%
- CC1=C(C(=O)Nc2ccccc2)C(c2ccc(O)cc2)n2nc(-c3ccc(Cl)cc3)nc2N1 (stereo unspecified) — higher, 13.2%
- Cc1ccc(S(=O)(=O)NCCSc2nnnn2-c2ccccc2)cc1 — lower, -10.9%
- COc1ccc2c(c1)NC(c1ccc(Cl)cc1)=NC(c1cccs1)=N2 — higher, -1.43%
- Cc1oc(-c2cccc(Br)c2)nc1Cn1c(SCc2cccc(F)c2)nc2cccnc21 — higher, 3.74%
- COc1ccc(NC(=O)CCS(=O)(=O)c2ccc3c(c2)n(C)c(=O)c(=O)n3C)cc1Cl — higher, 14%
- O=C(CCC1N=C2c3ccccc3N=C(SCc3cccc(Cl)c3)N2C1=O)NCCc1ccccc1 (stereo unspecified) — higher, 0.473%
- COc1ccc(Br)cc1CNC(=O)CSc1n[nH]c(-c2ccccc2)n1 — higher, 1.14%
- CCC(C)[C@H](N)c1nnc(SCc2ccc(Cl)c(Cl)c2)o1 (stereo partly specified) — higher, 2.31%
- Cc1ccc(CN2C(=O)C3(c4ccccc42)N(c2ccc(C)c(Cl)c2)C(=O)CS3(=O)=O)cc1 (stereo unspecified) — higher, 8.96%
- COc1ccc(NC(=O)CSc2cn(CCNC(=O)c3ccc(OC)cc3)c3ccccc23)cc1 — higher, 5.59%
- COc1cccc(/C=C(\C#N)C(=O)Nc2ccc(NC(C)=O)cc2)c1OC — lower, -27.7%
- CCc1nc2sc3c(N4CCCCC4)ncnc3c2c2c1CCCC2 — higher, 17%
- Cc1ccc(-c2nc3scc(CCNS(=O)(=O)c4ccc(Oc5ccccc5)cc4)n3n2)cc1 — lower, -14.8%
- CCOC(=O)c1c(-c2ccccc2)csc1NC(=O)c1nc(SCC)ncc1Cl — higher, 2.48%
- CCCCCNC(=O)C1CCC(Cn2c(=O)c3sccc3n(CC)c2=O)CC1 (stereo unspecified) — higher, 11.6%
- CCOc1cc(/C=C(\C#N)C(=O)Nc2ccc(OC)cc2)ccc1OCc1cc(=O)n2nc(CC)sc2n1 — lower, -15.9%
- CC(=O)Nc1ccc(NC(=O)c2ncoc2-c2ccco2)cc1 — higher, 10.4%
- Cc1ccc2nc(CSc3nnc(NC(=O)c4ccc(C(C)(C)C)cc4)s3)cc(=O)n2c1 — lower, -5.38%
- CCc1ccc(NC(=O)CN2C(=O)CC(c3ccccc3)Sc3ccccc32)cc1 (stereo unspecified) — lower, -12%
- CCCCN(C)CCNC(=O)c1cc(-c2ccc(Cl)s2)nc2ccccc12 — lower, -25.6%
- CC(C)(C)OC(=O)N1CCC(c2c(C(=O)NCCN3CCOCC3)cnn2-c2ccc(F)cc2F)CC1 — higher, 6.14%
- COc1ccc(-c2cccc(NS(=O)(=O)c3ccc(NC(C)=O)cc3)c2)nn1 — lower, -6.65%
- CCOc1ccccc1Nc1nc2c(S(=O)(=O)c3ccc(C)cc3)nnn2c2ccsc12 — higher, 0.457%
- Cc1cccc(-n2ncc(C(=O)NCc3ccc4c(c3)OCO4)c2C2CCN(C(=O)OC(C)(C)C)CC2)c1 — higher, 7.13%
- CCc1ccc(NS(=O)(=O)c2ccc3[nH]c4c(c3c2)CCCCCC4)cc1 — higher, 2.18%
- O=C(CSc1nc(Nc2ccc(F)c(F)c2)c2ccccc2n1)c1ccc(Cl)cc1 — lower, -8.25%
- Cc1cccc(CC(=O)N2CC(=O)Nc3ccc(F)cc3C2c2ccccc2)c1 (stereo unspecified) — lower, -14.1%
- O=C(CSCc1ccc(F)cc1)NCc1ccc(F)cc1 — higher, 12%
- Cc1ccc(CNC(=O)CSc2c(C(C)C)cnc3c2c(=O)n(C)c(=O)n3C)cc1 — lower, -11.7%
- COc1cc(NC(=O)CCCc2nnc3n(C)c(=O)c4sccc4n23)cc(OC)c1OC — higher, -2.19%
- CCc1ccccc1NC(=O)Nc1ccc2snnc2c1 — higher, 2.28%
- CCC(CC)C(=O)N1CCc2cc(OC)c(OC)cc2C1COc1ccc(F)cc1 (stereo unspecified) — higher, 6.65%
- Cc1ccc(C)c(N2CCN(C(=O)Cn3cnc4nc5c(cc4c3=O)CCCC5)CC2)c1 — lower, -10.4%
- CCOC(=O)c1cccc(NC(=O)C2=C(C)C(=O)OC23CCCCC3)c1 — higher, 20.4%
- Cc1ccc(C)c(Cn2c(SCC(=O)NCc3ccccc3)nc3ccccc32)c1 — higher, 21.8%
- Cn1c(NCCN)nc2c1c(=O)n(Cc1ccccc1)c(=O)n2C — higher, 0.664%
- Cc1ccc(C)c(NC(=O)c2oc(=O)c3ccccc3c2-c2ccccc2)c1 — higher, 1.57%
- CCCc1nn2c(=O)cc(COC(=O)c3ccc4c(c3)OCO4)nc2s1 — higher, 17.5%
- Cc1cc2nc(-c3ccc(OCc4ccccc4F)cc3)cc(C(F)(F)F)n2n1 — higher, 8.43%
- Cc1ccc(-c2c(C(=O)Nc3ccccc3F)oc(=O)c3ccccc23)cc1 — higher, 13.8%
- CCCN(CCC)C(=O)C1CCN(c2cc(C)nc3c(-c4ccc(Cl)cc4)c(C)nn23)CC1 — higher, -0.148%
- COc1ccc(C(=O)Nc2ccc(-c3nc4ccccc4s3)c(Cl)c2)cc1Cl — higher, 6.49%
- COc1cc(C(=O)Nc2cc(C)c(O)c(-c3nc4ccccc4s3)c2)cc(OC)c1OC — higher, -0.911%
- O=C(NCCO)c1ccc(-c2nnc(Nc3ccc(OC(F)(F)Cl)cc3)c3ccccc23)cc1 — lower, -6.48%
- COc1ccc(CNc2ncnc3c2c(-c2ccccc2)cn3-c2ccc(C)c(Cl)c2)cc1 — higher, 16.2%
- O=C(Cn1cc(S(=O)(=O)Cc2ccccc2F)c2ccccc21)Nc1ccc(F)c(Cl)c1 — higher, 4.86%
- COc1cccc(C(=O)Nc2nc(-c3nnn(-c4cccc(Cl)c4C)c3C)ns2)c1 — higher, 1.2%
- COc1ccc(NC(=O)Cn2c(=O)n(-c3ccc(OC)cc3)c(=O)c3sc4ccccc4c32)cc1 — lower, -18.8%
- COc1ccc2c(CNCc3ccco3)c(C(=O)O)n(Cc3cccc(F)c3)c2c1 — lower, -10.8%
- CCCCn1c(=O)c2oc3ccccc3c2n(Cc2ccc(C)cc2)c1=O — lower, -9.27%
- COc1ccc2ncc3c(-c4ccc(C)c(C)c4)nn(CC(=O)Nc4ccccc4)c3c2c1 — higher, 7.61%
- Cc1cc(SCC(=O)Nc2ccc(F)cc2F)nc(=O)[nH]1 — higher, 4.15%
- CCOC(=O)c1ccc(NC(=O)c2nc(SCc3ccc(F)cc3)ncc2Cl)cc1 — higher, -2.75%
- COC(=O)c1c(NC(=O)c2cc(=O)c3cc(C)cc(C)c3o2)sc2c1CCC2 — higher, -1.36%
- COc1ccccc1NC(=O)c1cc2cc3ccc(OC)c(Cl)c3nc2s1 — higher, 13%
- Cc1ccc(CC(=O)NCc2nc(-c3ccccc3)no2)cc1 — lower, -15.8%
- O=C(NCCc1ccccc1Cl)c1cc2ccccn2n1 — higher, 7.84%
- Cc1ccc(NC(=O)Cn2nc(C(F)(F)F)c3c2CCCC3)cc1 — higher, 2.67%
- Cc1ccc(S(=O)(=O)NCCc2nnc3ccc(SCC(=O)Nc4c(C)cc(C)cc4C)nn23)cc1 — higher, -1.3%
- CCOc1ccc(CCNC(=O)c2c3c(nc4ccccc24)C(=O)N(C2CCCCC2)C3)cc1 — higher, 2.96%
- Cc1ccc(S(=O)(=O)N2CCCc3cc(NC(=O)c4ccc(Cl)cc4)ccc32)cc1 — higher, 13.4%
- CCn1c(CNC(=O)c2ccc(OC)cc2)nnc1SCC(=O)Nc1cccc(C)c1 — higher, 0.186%
- COc1ccccc1C(=O)NC(=O)Nc1ccc(-c2cc(C(F)(F)F)nn2-c2ccccc2)cc1 — higher, 10.6%
- CCc1ccc(C(=O)c2cn(CC(=O)Nc3ccc4c(c3)OCO4)c3ccc(Cl)cc3c2=O)cc1 — higher, 10.9%
- CCOc1ccc2c(c1)NC(c1ccc(OCC)c(OCC)c1)=NC(c1ccc(F)cc1)=N2 — lower, -5.4%

With `CC(C)c1[nH]nc2c1C1(CCN(Cc3ccccc3)CC1)C(C#N)=C(N)O2` the inhibition was active: 39.6%.
`COc1cc(OC)cc(C(=O)NC(=S)N2CCN(c3ccc(C(F)(F)F)cc3[N+](=O)[O-])CC2)c1` was tested, and the inhibition was active: 30%.
`CN1CCN(C2=Nc3cc(F)ccc3Cc3ccccc32)CC1` was tested, and the inhibition was active: 32.9%.
`Cc1ccccc1/C=C\c1nc2ccccc2c(=O)[nH]1` was tested, and the inhibition was active: 33.1%.
In the case of `c1ccc(N2CCN(Cc3ccsc3)CC2)nc1`, the inhibition is reported as active: 84.1%.
`CCC(C)c1ccccc1OCCOCCN1CCCC1` (stereo unspecified) was tested, and the inhibition was active: 54%.
For `COc1ccc(CN2CCN(C(=O)c3cccs3)CC2)cc1`, the inhibition was active: 94.5%.
In the case of `O=C(NCc1ccco1)C1CCCN1C(=O)Nc1cccc(Cl)c1` (stereo unspecified), the inhibition is reported as active: 56.5%.
`O=C(Nc1ccccc1F)c1ccc(CN2CCN(c3ccccc3)CC2)cc1` was tested, and the inhibition was active: 80.9%.
`O=C(Nc1ccc(O)cc1C(=O)O)c1cccs1` was tested, and the inhibition was active: 34.6%.
In the case of `CCN(CC(=O)NCc1ccc(Cl)cc1)C(=O)c1c(C)noc1C`, the inhibition is reported as active: 30.3%.
For `COc1ccc(CNCc2ccco2)cc1OCc1ccccc1`, the inhibition was active: 37.4%.
`CC(C)NC(=O)/C(=N\O)c1ccccc1` was tested, and the inhibition was active: 32.1%.
In the case of `COc1ccc2[nH]c3c(=O)n(/N=C/[C@H]4C(C)C=C(C)CC4C)c(=O)[nH]c3c2c1` (stereo partly specified), the inhibition is reported as active: 35.8%.
For `Cc1ccc(C(=O)NCCn2cc(SCC(=O)Nc3cc(C)on3)c3ccccc32)cc1`, the inhibition was active: 32.5%.
In the case of `CCOc1ccccc1CN1CCN(C/C=C/c2ccc(OC)cc2)CC1CCO` (stereo unspecified), the inhibition is reported as active: 33.6%.
For `CC(C)c1ccc2occ(-c3nn[nH]n3)c(=O)c2c1`, the inhibition was active: 32.4%.
In the case of `CC1CCN(C(=O)CSc2nnc3ccc(-c4cccnc4)nn23)CC1`, the inhibition is reported as active: 37.8%.
For `COc1cccc(C2CC(c3ccc(Cl)cc3)n3nc(N)nc3N2)c1` (stereo unspecified), the inhibition was active: 56.6%.

— PubChem BioAssay AID485344 (National Center for Advancing Translational Sciences (NCATS), 2010)
